Assay results reported in the RNAGym collection of RNA variant scans (doi:10.7554/elife.90254).
The source gives no read counts; variants with many changes may rest on few reads.

B1: LINE1-mini (parent)
chain: GGCAGAGCUCAACACAGCGUGGCAAAGUGGCUGUGGCUAGACUGCC

Variants of: B1
Assay: self-cleavage, relative activity (ratio to wild type); higher = more cleavage; in vitro, sequencing; the parent is a self-cleaving ribozyme

Variant	self-cleavage
C13A G17U G19C U28G	0.07
C13A G17U G19U	0.1
C13A G17U G21U C45A	0.03
C13A G17U G30U C37U	0.08
C13A G17U G35C A39U	0.09
C13A G17U G36U	0.07
C13A G17U U28G G33U	0.01
C13A G19A A39G U43A	0.11
C13A G19A A39U	0.04
C13A G19A C31A	0.04
C13A G19A C31A G36U G44C	0.1
C13A G19A G29C G40C	0.07
C13A G19A G35C G36A G40C	0.05
C13A G19C C31A G36U G40C	0.01
C13A G19C G29C C37G	0.02
C13A G19C G29C C46A	0.06
C13A G19C G44A	0.11
C13A G19U A39C G40C C42A	0.01
C13A G19U A41U C45G	0.02
C13A G19U C37A	0.02
C13A G19U G22U	0.11
C13A G19U G27C	0.01
C13A G19U G33C	0.06
C13A G19U U28C	0.09

Variant	self-cleavage
C13A G21A A25G	0.01
C13A G21A A26G G27A C31U	0.09
C13A G21A C23U G35A	0.05
C13A G21A C31A U38A	0.02
C13A G21A G27U	0.17
C13A G21A G35A U43C	0.02
C13A G21C C23A G29U C45A	0.04
C13A G21C C46G	0.03
C13A G21C U28C C45U	0.08
C13A G21U C31U	0.08
C13A G21U C37A U38G	0.01
C13A G21U C37U	0.12
C13A G21U C46A	0.02
C13A G21U G22A C23U G30U A41U U43A C46A	0.04
C13A G21U G22U	0.08
C13A G21U G22U G29U A41C	0.03
C13A G21U G27U G33C	0.02
C13A G21U G35A	0.06
C13A G21U G40U	0.18
C13A G21U G44A	0.03
C13A G21U G44C	0.03
C13A G22A C37A	0.05
C13A G22A C46A	0.14
C13A G22C C23A G27U	0.09

Variant	self-cleavage
C13A G22C G40U C46U	0
C13A G22U A24C C42U C46A	0.02
C13A G22U A41C	0.1
C13A G22U C23G G44A	0.13
C13A G22U G29U	0.11
C13A G27A U32G	0.1
C13A G27A U43C C45A	0.02
C13A G27C G40C U43A	0.04
C13A G29C G33A	0.05
C13A G29U C31A A41U	0.07
C13A G29U C37A	0.18
C13A G29U U32A G35C A41G	0.1
C13A G29U U32C	0.04
C13A G30A A39U	0.03
C13A G30A C31G U34A A39U G44A	0
C13A G30A G44A	0.09
C13A G30A G44U	0.06
C13A G30C G33U G35C	0.54
C13A G30C U32A	0.04
C13A G30U C31U G33A C37U	0.09
C13A G30U U32C	0.05
C13A G33A G35C	0.07
C13A G33C A39G	0.03
C13A G33C C42U	0.24

Variant	self-cleavage
C13A G33C G35C C45A	0.02
C13A G33U G36C	0.01
C13A G35U C42U G44C	0.05
C13A G36U U38G	0.03
C13A G44C C46A	0.51
C13A G44U C46U	0.06
C13A U20A A24C G33U G35A	0.04
C13A U20A A25C G30U U32G	0.01
C13A U20A G21C G29C U43A	0.05
C13A U20A G22A	0.05
C13A U20A G22C U38C C42A	0.01
C13A U20A G36A	0.02
C13A U20A G44U	0.03
C13A U20C G40C	0.01
C13A U20G A26C U28C C37A	0.04
C13A U20G C23A G29C C31U	0.03
C13A U20G G21C	0.06
C13A U20G G27A C42U C46A	0.1
C13A U28A G29U U34G A41U	0.01
C13A U28A G30A U43G	0.02
C13A U28A G35A A41G C46G	0.15
C13A U28A G36A	0.2
C13A U28C C46U	0.11
C13A U28C G36U C46G	0.03

Variant	self-cleavage
C13A U28C G44C C45G	0.05
C13A U28G A39G	0
C13A U28G G33A	0.04
C13A U28G G36A	0.22
C13A U28G U38G	0
C13A U32A C42A	0.05
C13A U32G C46G	0.22
C13A U34C G40U	0.01
C13A U38G G44U C45U	0.01
C13G A14C A16G G33C	0.01
C13G A14C C18A G19U U43C	0.01
C13G A14C G35A C37A A41U	0
C13G A14C G35U	0
C13G A14G G21A U43A	0.06
C13G A14G G22A	0.04
C13G A14G G29A U32C G44U C45U	0.02
C13G A14U C15A G17C	0.05
C13G A14U C15A G40A	0.21
C13G A14U C18A A26G U34G A41U	0
C13G A14U G19A G36A	0.09
C13G A14U G36U	0.04
C13G A14U G40A C42U	0.01
C13G A14U U20A A26U U32A C37G	0.01
C13G A14U U28A A39C C45G	0.02

Variant	self-cleavage
C13G A16C C31A	0.04
C13G A16C C37U A41C	0.03
C13G A16C G17A G27C U28C G36U C46U	0.05
C13G A16C G27C G30A	0.05
C13G A16C G27U U32A C37A	0.02
C13G A16C G33A U34C	0.06
C13G A16C G35U C46A	0.65
C13G A16G A39U G44U	0.01
C13G A16G C45G	0.08
C13G A16G U28A	0.02
C13G A16G U34C	0.02
C13G A16U U20A	0.08
C13G A24C C31U U38A	0.01
C13G A24C G27U	0.07
C13G A24C G29C	0.05
C13G A24C U28A C45G	0.02
C13G A24U G29A G44A	0.04
C13G A24U G30U A41G	0.01
C13G A24U G40A	0.04
C13G A25C A39U	0
C13G A25C C37G G44A	0.03
C13G A25C G27A G29A G36U	0.1
C13G A25C G27C G29A	0.11
C13G A25C G40A	0.02

Variant	self-cleavage
C13G A25U C37A A39G	0.11
C13G A25U U32G U38G A41C C42A	0
C13G A26C C37U C46A	0.07
C13G A39U C42G	0.03
C13G C15A A16U A26G	0.09
C13G C15A A24U U28G G36A C37U C46A	0.01
C13G C15A C23A G30C C31G	0.05
C13G C15A G21A A24C A39C	0.09
C13G C15A G21A G27C U38A G44C	0.06
C13G C15A U38C C45A	0.01
C13G C15G G17A	0.03
C13G C15G G40A	0.03
C13G C15G G40U	0.02
C13G C15G U20G A26C C42U G44U	0.02
C13G C15G U38A	0.04
C13G C15U A26U	0.05
C13G C15U C23A G40U	0.08
C13G C15U C31A G35U	0.04
C13G C15U C37A	0.13
C13G C15U C45U	0.1
C13G C15U G17A U28G A39G	0.02
C13G C15U G36C	0.03
C13G C15U U38A	0.2
